In all, about 150,000 compounds went through this assay and about 540 (0.36%) showed an effect of 50% or more. Some of the results follow.
Tested on: Plasmodium falciparum
Test: Primary screen in NF54 nanoGlo assay, in single point, at 2uM, 72h; a lower Z score goes with more inhibition
Format: functional, Erythrocyte
Conditions: timepoint 72 hour

SMILES	% Inhibition [%]	Z score
COC1(CNC(=O)C2C(C)OC(C)C2C)CCC(C(F)F)CC1 (stereo unspecified)	-5	0.67
Cc1nn(C(C)C)c(C)c1CNC[C@@H]1C[C@H](CO)N(C)[C@@H]1c1ccccc1F	-3	0.4
Cc1cc(NC(=O)N[C@H]2CC3(CCCC3)Oc3ccccc32)n(C)n1	-5	0.88
Cc1nc(CCNc2nnc(C(C)(C)C)s2)sc1C	10	-1.27
Cc1ccccc1CN1CCCn2nc(C(=O)N(C)CC(=O)N3CCOCC3)cc2C1=O	-4	0.62
Cc1c[nH]c(=O)c(CNC(=O)N[C@@H](C)c2cncc(F)c2)c1	-12	1.25
CCCc1cc(=O)n2nc(Cc3ccccc3)c(-c3cccc4ccccc34)c2[nH]1	-17	3.23
O=C(NCc1cn(-c2ccncc2)nn1)c1ccco1	17	-2.2
Cc1oc2ncnc(NC(=O)C3CC3c3ccc4c(c3)OCCO4)c2c1C (stereo unspecified)	-14	2.3
COc1ccc(F)cc1C(=O)N1CCCO[C@@H](CN2CCCCC2)C1	-16	1.4
Cc1cnc(CN2CCCC(C)C2CNC(=O)OC(C)(C)C)cn1 (stereo unspecified)	-12	2.59
C[C@@H](NC(=O)N[C@@H]1Cc2ccccc2[C@H]1O)c1cc2ccccc2o1	2	-0.28
O=C(NC[C@H]1OC[C@@H](NCc2cccs2)[C@@H]1O)C1CCCC1	-6	0.98
O=C(C1CCN(Cn2ncc3ccccc3c2=O)CC1)N1CCCCCC1	17	-2.21
CCOCCC(=O)Nc1c(C)cnn1CC(C)C	-5	0.79
CCn1c(-c2cc(NC(=O)CC(C)C)[nH]n2)cc2ccccc21	-4	0.49
Cc1sc(CNC(=O)c2cnccn2)nc1-c1ccccc1	-2	0.25
Cc1ccc(-c2coc(-c3ccc(NC(=O)c4c(F)cccc4F)cc3)n2)cc1	-8	0.97
COc1cccc(N2CCN(C(=O)c3nnn(-c4ccc(Cl)cc4)c3C)CC2)c1	34	-3.82
O=C(c1cccc(S(=O)(=O)N2CCN3CCCC[C@H]3C2)c1)N1CCCC1	-14	1.4
Cc1ccccc1-c1noc(CN2CCc3c(nc(C4CC4)n3C)C2)n1	-6	0.84

SMILES	% Inhibition [%]	Z score
O=C([C@H]1C[C@@H](F)CN1S(=O)(=O)Cc1ccc(Cl)cc1)N1CCOCC1	-7	0.92
Cc1cccc(S(=O)(=O)CC(=O)N2CCc3ccccc3C2)c1	-3	0.3
CC(=O)Nc1ccc(CN2CCC[C@H](C(=O)c3cccc4ccccc34)C2)cc1	-1	0.24
Cc1cccc(CC2(NC(=O)C[C@H]3CCOC3)CC2)c1	-6	0.79
C(=Cc1ccn(-c2ccccc2)n1)c1ccnnc1	27	-3.67
CN(CC(=O)Nc1ccc(O)cc1)Cc1nc2c(cnn2C)c(=O)[nH]1	-4	0.6
COc1cccc(C(=O)N[C@@H]2C[C@H]3OCC[C@@H]23)c1C	4	-0.63
COc1ccnc(N2CCC[C@@]3(CCC(=O)N(CCc4ccccn4)C3)C2)n1	2	-0.37
CCN(CC(=O)N1CCOC2CCCCC21)C1CCS(=O)(=O)C1 (stereo unspecified)	8	-1.1
O=C(NCCn1cc(-c2cccnc2)cn1)[C@@H]1CC=CCC1	15	-1.85
O=C(CC[C@H]1CCCN(C(=O)c2cccs2)C1)N1CCN(c2ccccn2)CC1	-8	1.36
Cc1cccnc1C(=O)N1CCC([C@H]2CCN(CCc3ccccc3)C2)CC1	-17	1.56
Cc1ncc(C(C)C)c(-c2ccc3c(c2)OCCO3)n1	-3	0.32
CS(=O)(=O)N1CCN(c2ccc(=O)n(-c3ccc(Cl)cc3)n2)CC1	15	-1.8
O=C(c1ccccn1)N1C[C@@H]2OCC(=O)N(CC3CC3)[C@@H]2C1	5	-0.7
Cc1noc(C)c1C(=O)NC[C@H](OCCO)c1cccs1	0	-0.03
CC(=O)N1CCc2cc(N[C@@H](C)C(=O)Nc3ccc(N(C)C)cc3)ccc21	1	-0.19
COc1ccc([C@H]2CC(=O)N(Cc3cccc(C)c3)c3c2c(C)nn3-c2nc(C)cc(C)n2)c(OC)c1	-19	2.72
CCOC(=O)Nc1ccc2c(c1)N(C(=O)CCN(CC)CC)c1ccccc1[S@@+]2[O-]	-6	1.1
O=C(CC(=O)NCc1ccco1)NCc1ccco1	3	-0.57
CCc1noc2nc(CCC(=O)NCc3cccc(Cl)c3)nc(N3CCCCC3)c12	0	0.02

SMILES	% Inhibition [%]	Z score
Cc1ccn2cnc(C(=O)N(C)Cc3csc(C(C)(C)O)n3)c2c1	4	-0.6
CC(C)NC(=O)c1csc(COc2ccc3c(c2)[C@H](c2cccc(F)c2)N(C(=O)C(C)C)CC3)n1	-2	0.27
CCn1nnc(NCc2ccc(CC(C)C)s2)n1	4	-0.67
O=C(NC1CCN(c2cnccn2)CC1)c1cc(-c2ccccc2)on1	-8	1.09
Cc1csc(C(=O)NCC[C@H](O)c2cccc(Cl)c2)c1	-22	2.76
Cc1cccc(NC(=O)C(=O)N2CCCCCCC2)n1	-2	0.18
Cc1noc(C2CC2)c1N[C@@H](C)CC1CCCC1	-19	2.91
Cc1ccc(CNS(=O)(=O)c2cc(-c3nc(C(C)C)cs3)sc2C)cc1	-4	0.49
Cc1cccc2c(C(=O)N[C@H]3CCOC3(C)C)coc12	-11	1.17
O=c1c2ccccc2nc(Cc2ccccc2)n1Nc1ccccc1	-13	1.76
Cc1cccn2cc(Cn3cc(CN4C[C@@H](C)O[C@@H](C)C4)nn3)nc12	-3	0.46
COc1cc(N(C)CC2(CO)CCCC2)nc(N)n1	-9	1.21
Cc1ccccc1-n1c(=O)c2sccc2n(CC(=O)Nc2ccc(N(C)C)cc2)c1=O	2	-0.2
Cc1nc(CN2C(=O)N(CC(N)=O)C(C)(C)C2=O)sc1C	-44	5.18
O=C(Cn1nnc2ccccc21)Nc1ccn(Cc2ccc(F)cc2Cl)n1	7	-0.82
O=C(NCc1ccccn1)c1ccc(Cn2c(=O)[nH]c3ccsc3c2=O)cc1	10	-1.61
CC[C@@H](c1ccccn1)N(C)C(=O)c1ccc(-c2sc(C)nc2C)cc1	9	-1.25
Cc1ccc(CN2CCN(CC3CCCCC3)[C@@H](CCO)C2)s1	-18	1.62
CCN1CCC[C@@H]1CN(C)Cc1ccoc1	-22	2.7
CCCN1CCCC[C@H]1C(=O)NCCCn1ccnc1	-6	1.01
CCOCCN1C(=O)NC2c3ccccc3OC13CCCCC23 (stereo unspecified)	1	-0.12

SMILES	% Inhibition [%]	Z score
NC(=O)c1ccc(NC(=O)N2CC[C@H](n3cccn3)C2)cn1	0	-0.05
O=C(COc1ccc(Cl)cc1)N1CCO[C@@H](CN2CCN(c3ccc(F)cc3)CC2)C1	-6	0.77
CCc1ccc(C(=O)N(C)Cc2cc(C)on2)s1	-8	1.25
COc1ncc(-c2c(-c3ccccc3)ncn2[C@H]2COC[C@@H]2OC)cn1	5	-0.59
Cc1csc(CN2CCOC[C@H]2c2noc(-c3cnn(C)c3)n2)n1	-18	2.56
CCc1nc(C)c(NC(=O)N[C@@H](C)c2cccc(O)c2)s1	-9	1.07
Cc1cc(C(=O)N2CC(c3nc(-c4ccco4)no3)C2)no1	-20	2.31
Cc1nnc2ccc(N3CC(Cn4nc5c(cc4=O)CCC5)C3)nn12	-8	1.14
CCCn1c(C)nnc1CN[C@H](C)c1ccc(Cl)cc1Cl	-4	0.58
COc1ncc(CN2CCOC[C@H]2c2ccc(F)cc2)c(C)n1	-14	1.84
CN(Cc1cc(=O)n2ncnc2[nH]1)CC1(N2CCOCC2)CCCCC1	13	-1.75
Cc1ccc(-c2onc(C)c2C(=O)Nc2ccc3ccccc3c2)cc1	-6	0.73
O=C1C2Cc3c([nH]c4ccccc34)C(CCc3ccccc3)N2C(=O)CN1Cc1ccc(Cl)cc1 (stereo unspecified)	-12	1.04
CCC[C@H](C)NC(=O)c1c(CC)noc1C	-9	0.82
C[C@@H](CNC(=O)N1CCN(S(=O)(=O)c2ccccc2)CC1)c1nc2ccccc2n1C(F)F	3	-0.35
C[C@H](NC(=O)c1coc(CN(CCN2CCOCC2)Cc2cccc(Cl)c2)n1)c1ccccc1	2	-0.31
O=C(Nc1ccccc1C(F)(F)F)[C@@H]1COCC(=O)N1Cc1ccccc1	-8	1.12
COC(=O)CN1CCN(Cc2c[nH]nc2-c2ccc(F)cc2)[C@@H](C)C1=O	0	0.02
CCN(CC)C(=O)c1cnc2snc(C)c2c1N1CCC(C(=O)Nc2ccc(C(C)C)cc2)CC1	-7	1.06
COC1(C(=O)N[C@H](C)c2ccc(F)cc2Cl)CCC1	9	-1.61

— ChEMBL document CHEMBL4888484, “Replenishing the malaria drug discovery pipeline: Screening and hit evaluation of the MMV Hit Generation Library 1 (HGL1) against asexual blood stage Plasmodium falciparum ,using a nano luciferase reporter read-out” (2022)
